Test results from PubChem BioAssay AID504332 (National Center for Advancing Translational Sciences (NCATS), 2011).
In all, about 350,000 compounds went through this assay and about 31,000 (8.9%) were called active. The shares of active, inactive and inconclusive entries below differ from those in the screen. Calls follow the shape of the dose curve; as a rule, active = well fitted inhibition curve with a large enough effect; inconclusive = small, poorly fitted or top-dose-only effect; inactive = no such curve, though single readings can be large or run the other way. A potency beside an inconclusive call is a rough fit, not a confirmed value.

target: Histone-lysine N-methyltransferase EHMT2 (Homo sapiens) (UniProt Q96KQ7); test: qHTS Assay for Inhibitors of Histone Lysine Methyltransferase G9a; details: G9a H3K9 monomethylation, AlphaScreen, 2 h; activity, negative = inhibition: at 59 µM (top of the series) unless noted; also: nearly all actives have a fitted effect of over 75% in size
Outline: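 G9a (20 nM) was preincubated 15 min with compound, then reacted 2 h at room temperature with 500 nM biotin-H3K9 peptide and 20 µM SAM. Monomethyl-H3K9 detected by AlphaScreen using anti-H3K9me1 antibody.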
% is scaled to controls: 0 for no effect and ±100 for the full control effect; potency is read from the fitted curve at half-maximal effect; tags tell the direction and shape of the fitted curve.

UniProt Q96KQ7, sequence (Q96KQ7 whole entry, looked up): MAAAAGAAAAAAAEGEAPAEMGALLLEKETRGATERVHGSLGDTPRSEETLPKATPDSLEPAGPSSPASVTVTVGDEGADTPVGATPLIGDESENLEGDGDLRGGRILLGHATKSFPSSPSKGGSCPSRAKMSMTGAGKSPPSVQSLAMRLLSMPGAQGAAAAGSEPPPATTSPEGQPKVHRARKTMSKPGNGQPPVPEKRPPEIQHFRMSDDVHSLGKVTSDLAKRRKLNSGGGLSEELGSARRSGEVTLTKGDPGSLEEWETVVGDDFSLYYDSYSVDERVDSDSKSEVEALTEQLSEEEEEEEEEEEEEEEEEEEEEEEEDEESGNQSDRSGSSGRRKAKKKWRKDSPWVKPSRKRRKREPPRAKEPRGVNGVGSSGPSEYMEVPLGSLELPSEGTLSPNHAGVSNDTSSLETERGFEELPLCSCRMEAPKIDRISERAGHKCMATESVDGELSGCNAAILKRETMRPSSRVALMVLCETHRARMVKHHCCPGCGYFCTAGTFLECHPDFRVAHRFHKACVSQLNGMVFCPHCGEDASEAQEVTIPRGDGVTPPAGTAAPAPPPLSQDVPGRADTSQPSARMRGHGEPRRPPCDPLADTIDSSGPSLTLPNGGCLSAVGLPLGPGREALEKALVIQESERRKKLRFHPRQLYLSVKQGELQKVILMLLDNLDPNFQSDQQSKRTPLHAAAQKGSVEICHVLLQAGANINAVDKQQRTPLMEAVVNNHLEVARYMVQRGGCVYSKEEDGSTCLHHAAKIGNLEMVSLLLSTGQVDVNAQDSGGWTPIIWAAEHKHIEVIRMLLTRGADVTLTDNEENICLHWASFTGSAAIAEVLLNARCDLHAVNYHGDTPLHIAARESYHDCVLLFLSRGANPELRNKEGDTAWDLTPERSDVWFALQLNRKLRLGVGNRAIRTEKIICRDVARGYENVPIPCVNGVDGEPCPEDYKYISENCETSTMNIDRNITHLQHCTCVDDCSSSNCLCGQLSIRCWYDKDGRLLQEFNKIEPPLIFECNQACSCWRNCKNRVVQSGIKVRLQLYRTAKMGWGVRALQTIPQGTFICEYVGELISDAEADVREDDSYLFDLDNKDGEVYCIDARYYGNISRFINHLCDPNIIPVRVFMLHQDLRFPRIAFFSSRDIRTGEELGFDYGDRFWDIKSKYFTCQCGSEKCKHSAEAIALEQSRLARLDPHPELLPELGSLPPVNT

Compound	Potency	activity, negative = inhibition
C/C=C/c1ccc(OCCCNC(C)CC)c(OC)c1 (configuration not stated)	inconclusive: 10 µM [inhibitor, partial curve, poor fit]	–
O=C(c1csnn1)N1CCC2(CC1)CN(Cc1cc(C(F)(F)F)cc(C(F)(F)F)c1)C2	–	inactive: 10.2% [at 12.7 µM]
COC(=O)c1c(NC(=O)CN2C(=O)c3ccccc3C2=O)sc(Cc2ccc3c(c2)OCO3)c1C	active: 50.1 µM	–
O=C(COc1ccc(C(=S)N2CCC(Cc3ccccc3)CC2)cc1)N1CCOCC1	inconclusive: 50.1 µM [inhibitor, partial curve, poor fit]	–
Cc1ccc(OC(=O)CSc2nnc(CNC(=O)c3ccccc3)o2)cc1	inconclusive: 39.8 µM [inhibitor, partial curve, poor fit]	–
O=C1OC(N2CCN(C(=O)c3ccco3)CC2)c2ccccc21 (configuration not stated)	inconclusive: 1.12 µM [inhibitor, single point]	–
Cc1cc2ccccc2nc1SCC(=O)NC1CCCC1	inactive	–
Cc1cc(-c2csc(N)n2)c(C)n1CCc1ccccc1	inconclusive: 2.24 µM [inhibitor, partial curve, poor fit]	–
COc1ccc(Cl)cc1NC(=O)CN1CCc2ccccc21	active: 22.4 µM	–
Cc1ccc2nc(NCCCN3CCOCC3)c(C=NCCCN3CCOCC3)c(=O)n2c1	inconclusive: 70.8 µM [inhibitor, partial curve, poor fit]	–
COc1cccc(C2=NNC(=NCc3ccccc3)SC2)c1	active: 44.7 µM	–
NC(=O)NC(=O)COC(=O)c1cccc(NS(=O)(=O)/C=C/c2ccccc2)c1	inconclusive: 70.8 µM [inhibitor, partial curve, poor fit]	–
O=C1CC(N2CCN(c3ccc(C(=O)c4ccc(F)cc4)cc3)CC2)C(=O)N1 (configuration not stated)	inconclusive: 1.41 µM [inhibitor, single point]	–
COc1ccc(NC(=O)c2ccc(OCC3CCCO3)cc2)cc1OC (configuration not stated)	inconclusive: 8.91 µM [inhibitor, partial curve, poor fit]	–
CN(C)S(=O)(=O)c1ccc(C(=O)/C=C/c2cccnc2)cc1	inconclusive: 89.1 µM [inhibitor, single point]	–
CCN(CC(=O)Nc1ccc(OC)cc1)C(=O)c1cc(-c2cccs2)nn1-c1ccccc1	inconclusive: 56.2 µM [inhibitor, partial curve, poor fit]	–
Oc1ccccc1OCc1nc2ccccc2s1	–	inconclusive: -85.9% [inhibitor]
CCOC(=O)c1nnc2c(-c3ccc(Cl)cc3)c(C)nn2c1C	inconclusive: 10 µM [inhibitor, partial curve, poor fit]	–
Cc1c(C(=O)NCCN(C)C)sc2nc3n(c(=O)c12)CCC3	inactive	–
O=C(NC1CCN(Cc2ccccc2)CC1)c1ccccc1Cl	inconclusive: 100 µM [inhibitor, single point]	–
COc1ccc(Br)cc1CNc1ccc(N2CCOCC2)cc1	inconclusive: 0.355 µM [inhibitor, partial curve, poor fit]	–
Cc1ccccc1NC(=O)CCS(=O)(=O)c1ccc(Br)s1	active: 44.7 µM	–
Oc1c(CN2CCN(c3ccccn3)CC2)cc(Cl)c2cccnc12	inconclusive: 25.1 µM [inhibitor, single point]	–

Compound	Potency	activity, negative = inhibition
CC(OC(=O)c1ccc(Cl)nc1)C(=O)Nc1ccc(S(=O)(=O)N2CCCC2)cc1 (configuration not stated)	inconclusive: 79.4 µM [inhibitor, partial curve, poor fit]	–
N#CCCN/N=C(\Cc1nc2ccccc2[nH]1)c1ccccc1	active: 50.1 µM	–
CN(C)S(=O)(=O)c1cccc(NC(=O)COc2ccc(C(=O)c3ccccc3)cc2)c1	inactive	–
CN(CC(=O)Nc1ccc(F)cc1F)S(=O)(=O)c1cccc2nsnc12	inactive	–
COc1ccc2[nH]c3c(NCCN4CCCCC4)ncnc3c2c1	inconclusive: 20 µM [inhibitor, single point]	–
CCN(CC)CCCNC(=O)c1sc2nc3n(c(=O)c2c1C)CCCCC3	inconclusive: 39.8 µM [inhibitor, partial curve, poor fit]	–
CCS(=O)(=O)NCc1ccc2[nH]c3c(c2c1)CCCC3	inconclusive: 100 µM [inhibitor, single point]	–
CCN(CC)S(=O)(=O)c1cc(-c2ccc(=O)n(C(C)C(=O)Nc3cccc(C#N)c3)n2)ccc1C (configuration not stated)	inactive	–
COC(=O)C1=C(C)N(CCc2ccc(OC)c(OC)c2)C(=O)/C1=C\N(C)C	active: 44.7 µM	–
CCN(CC)c1ccc(/C=N/N2C(=O)c3ccccc3C2=O)c(O)c1	inconclusive: 70.8 µM [inhibitor, single point]	–
Cc1ccc(Cn2c(CN3CCC(C(=O)O)CC3)cc3ccccc32)cc1	inactive	–
Cc1c(Cc2ccccc2)sc(/N=C/c2ccc3ccccc3c2)c1C(N)=O	active: 20 µM	–
CC1=CC2=NC(=O)/C(=C\c3cccn3CCOc3ccccc3)C(=N)N2O1	inconclusive: 39.8 µM [inhibitor, single point]	–
CCOC(=O)c1[nH]c2c(c1Cc1ccccc1)C(=O)CC(c1ccc(C(C)(C)C)cc1)C2 (configuration not stated)	inactive	–
COc1cc(C(=O)N/C(=C\c2cn(C)c3ccccc23)C(=O)NCCCN2CCOCC2)cc(OC)c1OC	inconclusive: 89.1 µM [inhibitor, single point]	–
CCn1c(SCC(=O)Nc2ccc(N3CCOCC3)cc2)nnc1-c1ccc(OC)cc1	inconclusive: 39.8 µM [inhibitor, single point]	–
CCOC(=O)C1CCN(C(=O)c2cnn(-c3ccc(F)cc3)c2-n2cccc2)CC1	inactive	–
O=C(NCCOc1ccccc1)c1cc([N+](=O)[O-])ccc1N1CCOCC1	–	inactive: 33.6% [at 12.7 µM]
COc1ccc2oc(-c3cccc(NC(=O)c4cc([N+](=O)[O-])ccc4N4CCOCC4)c3)nc2c1	inconclusive: 3.98 µM [inhibitor, partial curve, poor fit]	–
Cc1cc2c(c(=O)o1)C1O[C@](c3ccsc3)(Cc3ccccc31)O2	inconclusive: 0.708 µM [inhibitor, single point]	–
Cc1[nH]nc(N=CC2=C(O)CC(c3ccco3)CC2=O)c1-c1ccc(Cl)cc1 (configuration not stated)	inconclusive: 28.2 µM [inhibitor, single point]	–
O=C(COC(=O)c1ccc2ccccc2c1O)NCc1ccccc1	inconclusive: 8.91 µM [inhibitor, single point]	–
Cc1ccc(-c2noc(C3CCCN(C(=O)c4ccc(Cl)cc4)C3)n2)o1 (configuration not stated)	inconclusive: 50.1 µM [inhibitor, partial curve, poor fit]	–

Compound	Potency	activity, negative = inhibition
COc1cccc(NC(=O)CSc2ccc3nnc(-c4ccncc4)n3n2)c1	active: 50.1 µM	–
CCN(Cc1nc(-c2ccccc2)no1)C(=O)c1ccoc1C	inactive	–
CCOc1ccccc1NC(=O)CCS(=O)(=O)c1ccc2c(c1)oc(=O)n2C	inactive	–
CCCCn1c(SCc2nc3ccccc3s2)nc2ccccc2c1=O	inactive	–
CCc1nc2c(c(=O)c3ccccc3n2C)c(=O)n1C1CCCCCC1	inconclusive: 3.55 µM [inhibitor, single point]	–
CCOc1cc(-c2nnc(SCC(=O)NC3CCCCC3)nc2-c2ccc(OC)c(OCC)c2)ccc1OC	active: 8.91 µM	–
CCOC(=O)c1c(N/N=C/c2ccncc2)n[nH]c1C	inconclusive: 89.1 µM [inhibitor, single point]	–
O=C(CSc1ccc2nnc(CCNC(=O)c3ccccc3)n2n1)Nc1ccc(F)cc1F	inactive	–
O=S(=O)(c1ccc(Br)cc1)N1CCn2c(nc3ccccc32)C1	inconclusive: 89.1 µM [inhibitor, partial curve, poor fit]	–
CC1CCc2c(C(=O)Nc3cccc(-c4nn[nH]n4)c3)csc2C1 (configuration not stated)	active: 50.1 µM	–
CCN(CC)S(=O)(=O)c1cccc(NC(=O)c2cc(=O)[nH]c3ccccc23)c1	inconclusive: 89.1 µM [inhibitor, single point]	–
Cc1ccc(-n2nc(C(=O)N(C)c3ccc(C)c(C)c3)c3c4ccccc4n(C)c3c2=O)cc1	inactive	–
CCOc1ccc(C2NC(=O)c3sc(=S)n(-c4ccccc4)c3N2)cc1 (configuration not stated)	active: 31.6 µM	–
Cc1ccc(S(=O)(=O)N(C)CC(=O)NCCc2c[nH]c3ccccc23)cc1	inconclusive: 44.7 µM [inhibitor, partial curve, poor fit]	–
CC(=O)Nc1ccc(-c2csc(NC(=O)CN3C(=O)NC4(CCCC4)C3=O)n2)cc1	inconclusive: 79.4 µM [inhibitor, single point]	–
O=C1Nc2ccc(S(=O)(=O)N3CCCC3C(=O)O)c3cccc1c23 (configuration not stated)	inconclusive: 100 µM [inhibitor, single point]	–
O=C(Nc1ccc(S(=O)(=O)Nc2nccs2)cc1)c1ccc(F)c(S(=O)(=O)N2CCOCC2)c1	inconclusive: 89.1 µM [inhibitor, partial curve, poor fit]	–
CC(C)CNC(=O)CCc1nc(-c2ccccc2)no1	inconclusive: 70.8 µM [inhibitor, partial curve, poor fit]	–
COc1ccc(Nc2ncc3c(n2)CCN(Cc2sccc2C)C3)c(OC)c1	inconclusive: 17.8 µM [inhibitor, partial curve, poor fit]	–
COc1ccc(CC(=O)OCC(=O)Nc2ncc(Cl)c(C)c2Cl)cc1	inconclusive: 56.2 µM [inhibitor, partial curve, poor fit]	–
O=C(/C=C/c1ccco1)NC(=S)Nc1ccccc1N1CCCC1	active: 15.8 µM	–
